Experimental data published in the supplement of paper PMC6089552.
Among all 3,200 compounds or so, about 300 (9.4%) showed activity. The entries are a selection whose mix differs from that of the whole data set.

Test system: A673/TR/shEF
Test: cell viability (LOESS-normalised, relative to median of negative controls) (log2 ratio); higher = more viable cells (less compound effect), active = hit call of the paper (over 3 MAD below the median)
Details: treatment time: 72 h
Summary of the method: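 For three days, A673/TR/shEF Ewing sarcoma cells in 384-well plates (1,500 per well) were treated with library compounds at two or more concentrations or with DMSO controls, after doxycycline had been added or withheld 24 h beforehand to induce EWS-FLI1 shRNA knockdown. Viability was read by CellTiter-Glo luminescence on an Envision reader. The data were LOESS-corrected per plate, divided by the median of negative controls and log2-transformed.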

[1] = 0.25 µM, library screen: screen1, EWS-FLI1 expression: high (no doxycycline)
[2] = 0.25 µM, library screen: screen1, EWS-FLI1 expression: low (doxycycline-induced shRNA knockdown)
[3] = 0.25 µM, library screen: screen2, EWS-FLI1 expression: high (no doxycycline)
[4] = 0.25 µM, library screen: screen2, EWS-FLI1 expression: low (doxycycline-induced shRNA knockdown)
[5] = 2.5 µM, library screen: screen1, EWS-FLI1 expression: high (no doxycycline)
[6] = 2.5 µM, library screen: screen1, EWS-FLI1 expression: low (doxycycline-induced shRNA knockdown)
[7] = 2.5 µM, library screen: screen2, EWS-FLI1 expression: high (no doxycycline)
[8] = 2.5 µM, library screen: screen2, EWS-FLI1 expression: low (doxycycline-induced shRNA knockdown)
[9] = 0.103 µM, library screen: screen3, EWS-FLI1 expression: high (no doxycycline)
[10] = 0.103 µM, library screen: screen3, EWS-FLI1 expression: low (doxycycline-induced shRNA knockdown)
[11] = 0.308 µM, library screen: screen3, EWS-FLI1 expression: high (no doxycycline)
[12] = 0.308 µM, library screen: screen3, EWS-FLI1 expression: low (doxycycline-induced shRNA knockdown)
[13] = 0.926 µM, library screen: screen3, EWS-FLI1 expression: high (no doxycycline)
[14] = 0.926 µM, library screen: screen3, EWS-FLI1 expression: low (doxycycline-induced shRNA knockdown)
[15] = 2.8 µM, library screen: screen3, EWS-FLI1 expression: high (no doxycycline)
[16] = 2.8 µM, library screen: screen3, EWS-FLI1 expression: low (doxycycline-induced shRNA knockdown)
[17] = 8.3 µM, library screen: screen3, EWS-FLI1 expression: high (no doxycycline)
[18] = 8.3 µM, library screen: screen3, EWS-FLI1 expression: low (doxycycline-induced shRNA knockdown)
[19] = 25 µM, library screen: screen3, EWS-FLI1 expression: high (no doxycycline)
[20] = 25 µM, library screen: screen3, EWS-FLI1 expression: low (doxycycline-induced shRNA knockdown)

Measured: cell viability (log2)

CC(COc1ccccc1)N(CCCl)Cc1ccccc1 (stereo not given)
inactive: [1] 0.0822 | [2] -0.0662 | [3] 0.0486 | [4] 0.125 | [5] 0.0683 | [6] -0.0725 | [7] 0.0773 | [8] 0.115

Nc1ncn([C@@H]2O[C@H](CO)[C@@H](O)[C@H]2O)c(=O)n1
active: 25 µM, library screen: screen2, EWS-FLI1 expression: high (no doxycycline) -0.117

CNc1ncnc2c1ncn2[C@H]1C[C@H](OP(=O)(O)O)[C@@H](COP(=O)(O)O)O1
inactive: [3] 0.145 | [4] 0.0774 | [7] 0.0134 | [8] 0.162

CCCCCCCCCCCCCCCCCCOP(=O)([O-])OC1CC[N+](C)(C)CC1
inactive: [9] -0.109 | [10] 0.00532 | [11] -0.0472 | [12] 0.0546 | [13] -0.0421 | [14] 0.00139 | [15] -0.0453 | [16] 0.00702 | [17] -0.104 | [18] -0.0117 | [19] -0.0902 | [20] -0.0236

CC(=O)c1ccc(S(=O)(=O)NC(=O)NC2CCCCC2)cc1
inactive: [3] 0.139 | [4] 0.0828 | [7] 0.0424 | [8] 0.105

CCSC(=N)N
inactive: [3] 0.16 | [4] 0.0173 | [7] 0.0858 | [8] 0.0148

O=C(N[C@@H](Cc1ccccc1)C(=O)CCl)OCc1ccccc1
inactive: [3] 0.163 | [4] 0.156 | [8] 0.0216
active: [7] -0.218

Cc1scc2c1N(C(=O)CN1CCN(C)CC1)c1ccccc1NC2=O
inactive: [3] 0.158 | [4] 0.101 | [7] 0.269 | [8] 0.0381

Cc1cc2c(cc1Cl)N(C(=O)Nc1ccc(Oc3cccnc3C)nc1)CC2
inactive: [3] 0.241 | [4] 0.0886 | [7] 0.111 | [8] 0.164

c1ccc(C2CN3CCSC3=N2)cc1 (stereo not given)
inactive: 0.025 µM, library screen: screen1, EWS-FLI1 expression: high (no doxycycline) 0.0711 | 0.025 µM, library screen: screen1, EWS-FLI1 expression: low (doxycycline-induced shRNA knockdown) 0.0575 | [1] 0.0459 | [2] 0.00911 | [3] 0.102 | [4] 0.0185 | [6] 0.107 | [7] 0.166 | [8] 0.00181 | 25 µM, library screen: screen1, EWS-FLI1 expression: low (doxycycline-induced shRNA knockdown) 0.0697
active: [5] -0.215 | 25 µM, library screen: screen1, EWS-FLI1 expression: high (no doxycycline) -0.261

CC(COc1ccc(/C=C/c2ccccc2)cc1)[N+](C)(C)C (stereo not given)
inactive: [3] 0.094 | [4] 0.0771 | [7] 0.0835 | [8] 0.0618

[O-]n1ccccc1=S.[O-]n1ccccc1=S.[Zn+2]
active: [5] -0.205
inactive: [1] 0.17 | [2] 0.0708 | [6] 0.0604

Cc1c2oc3c(C)ccc(C(=O)NC4C(=O)NC(C(C)C)C(=O)N5CCCC5C(=O)N(C)CC(=O)N(C)C(C(C)C)C(=O)OC4C)c3nc-2c(C(=O)NC2C(=O)NC(C(C)C)C(=O)N3CCCC3C(=O)N(C)CC(=O)N(C)C(C(C)C)C(=O)OC2C)c(N)c1=O (stereo not given)
active: [1] -4.25 | [2] -4.25 | [5] -4.23 | [6] -4.26

COc1cc2cc3c4cc(OC)c(OC)cc4cc[n+]3c(C)c2cc1OC
inactive: [1] 0.0489 | [2] -0.0198 | [5] 0.106 | [6] 0.097

Cc1ccc(Cl)c(Nc2ccccc2C(=O)O)c1Cl
inactive: [1] 0.134 | [2] 0.00203 | [3] 0.0256 | [4] 0.0859 | [5] 0.175 | [6] 0.051 | [7] 0.105 | [8] 0.198

O=C(NCCO[N+](=O)[O-])c1cccnc1
inactive: [9] -0.00596 | [10] 0.0478 | [11] 0.0526 | [12] -0.0187 | [13] 0.00281 | [14] 0.0527 | [15] 0.0528 | [16] 0.0439 | [17] 0.0599 | [18] 0.0714 | [19] 0.00797 | [20] 0.00363

CN(C)CCOc1ccc(/C(=C(/CCCl)c2ccccc2)c2ccccc2)cc1
inactive: [9] 0.104 | [10] 0.00126 | [11] 0.155 | [12] 0.127 | [13] 0.118 | [14] 0.144 | [15] 0.15 | [16] 0.15 | [17] 0.114 | [18] 0.116 | [19] 0.0665 | [20] 0.0889

CC(C(=O)O)c1ccc(N2Cc3ccccc3C2=O)cc1 (stereo not given)
inactive: [1] 0.0818 | [2] -0.025 | [5] 0.167 | [6] 0.0502

Oc1ccc(OCc2ccccc2)cc1
inactive: [9] 0.123 | [10] -0.0268 | [11] 0.0306 | [12] 0.0601 | [13] 0.0336 | [14] -0.0221 | [16] 0.0872 | [17] -0.00746 | [18] 0.0842 | [20] 0.0776
active: [15] -0.186 | [19] -0.212

CC(C)C1=CC2=CC[C@@H]3[C@](C)(CCC[C@@]3(C)C(=O)O)[C@H]2CC1
inactive: [1] 0.0502 | [2] 0.122 | [5] 0.133 | [6] 0.195

CCCn1c(=O)c2c(ncn2C)n(CCC)c1=O
inactive: [3] 0.0901 | [4] 0.0971 | [7] 0.0465 | [8] 0.0214

CCOc1cc(/C=C2\SC(=S)N(CCS(=O)(=O)O)C2=O)ccc1O
inactive: [1] -0.00487 | [2] 0.0852 | [5] 0.0865 | [6] 0.0812

C[C@H]1C[C@H]2[C@@H]3CCC4=CC(=O)C=C[C@]4(C)[C@@]3(F)[C@@H](O)C[C@]2(C)[C@@]1(O)C(=O)CO
inactive: [1] 0.0929 | [2] -0.0742 | [3] 0.0662 | [4] 0.0634 | [5] 0.134 | [6] -0.324 | [7] 0.0211 | [8] 0.104

C[C@@H]1C[C@H]2[C@@H]3C[C@H](F)C4=CC(=O)C=C[C@]4(C)[C@@]3(F)[C@@H](O)C[C@]2(C)[C@H]1C(=O)COC(=O)C(C)(C)C
inactive: [1] 0.00935 | [2] -0.0577 | [5] 0.0831 | [6] -0.0529

O=C(O)/C=C/c1ccc(Cn2ccnc2)cc1
inactive: [9] -0.0376 | [10] -0.0446 | [11] 0.0658 | [12] 0.00819 | [13] -0.0199 | [14] 0.0462 | [15] 0.0246 | [16] 0.0247 | [17] -0.0228 | [18] 0.0719 | [19] 0.0138 | [20] 0.0675

COc1cc2nccc(Oc3ccc(NC(=O)C4(C(=O)Nc5ccc(F)cc5)CC4)cc3)c2cc1OC
inactive: [9] -0.0307 | [10] 0.0963 | [11] -0.00958 | [12] -0.0156 | [13] 0.0226 | [14] 0.0982 | [15] 0.0312 | [16] -0.00706 | [17] -0.0381 | [18] 0.0419 | [19] -0.135 | [20] 0.0518

COC(=O)C[C@H]1C(C)(C)C(=O)[C@@H]2CC3=C4CC(OC)O[C@@H](c5ccoc5)[C@]4(C)CCC3[C@@]1(C)C2=O (stereo not given in full)
inactive: [1] 0.115 | [2] 0.14 | [5] 0.0882 | [6] 0.172

CN1CCN(c2nc3cc(C(F)(F)F)ccc3n3cccc23)CC1
inactive: [3] 0.138 | [4] -0.0123 | [7] 0.117 | [8] 0.12

C[C@@H]1O[C@@H](O[C@H]2[C@H](O[C@H]3CC[C@@]4(C)[C@@H](CC[C@]5(C)[C@@H]4CC=C4[C@@H]6CC(C)(C)CC[C@]6(C(=O)O[C@@H]6O[C@H](CO[C@@H]7O[C@H](CO)[C@@H](O[C@@H]8O[C@@H](C)[C@H](O)[C@@H](O)[C@H]8O)[C@H](O)[C@H]7O)[C@@H](O)[C@H](O)[C@H]6O)CC[C@]45C)[C@]3(C)CO)OC[C@H](O)[C@@H]2O)[C@H](O)[C@H](O)[C@H]1O
inactive: [1] 0.0348 | [2] 0.044 | [5] 0.139 | [6] 0.126

CCC1=C(C)CN(C(=O)NCCc2ccc(S(=O)(=O)NC(=O)NC3CCC(C)CC3)cc2)C1=O (stereo not given)
active: [19] -0.481 | [20] -0.408
inactive: [9] 0.065 | [10] 0.0619 | [11] -0.018 | [12] 0.0454 | [13] -0.0554 | [14] -0.00949 | [15] 0.0264 | [16] -0.0201 | [17] -0.0146 | [18] -0.0784

CCOC(=O)CCCCCCCCCCCCC1C=CCC1 (stereo not given)
inactive: [1] 0.0735 | [2] 0.0764 | [5] 0.201 | [6] 0.124

CCn1nc(C(=O)O)c(=O)c2cc3c(cc21)OCO3
inactive: [1] 0.0624 | [2] 0.132 | [3] 0.127 | [4] 0.109 | [5] 0.197 | [6] 0.0394 | [7] 0.119 | [8] 0.118

Cc1cc(/C=C/c2ccc3cc(N(C)C)ccc3[n+]2C)c(C)n1-c1ccccc1
inactive: [1] 0.0226 | [2] 0.0827 | [5] -0.0806 | [6] 0.102

COc1ccccc1/C=C1\SC(=S)N(C2CCS(=O)(=O)C2)C1=O (stereo not given)
inactive: [1] 0.0633 | [2] 0.0907 | [5] 0.0733 | [6] 0.0539

COCCOC(=O)C1=C(C)NC(C)=C(C(=O)OC/C=C/c2ccccc2)C1c1cccc([N+](=O)[O-])c1 (stereo not given)
inactive: [9] 0.108 | [10] 0.0834 | [11] 0.129 | [12] 0.0492 | [13] 0.0684 | [14] 0.0642 | [15] 0.157 | [16] 0.0317 | [17] 0.0951 | [18] 0.0494 | [19] 0.0841 | [20] -0.00603
